Experimental findings from the RNAGym collection of RNA variant scans (doi:10.7554/elife.90254) are described below.

First the molecules themselves.
B1: LINE1-full (parent)
chain: UACGUAGGUGGUUUUCCCCUGAUAGUGCUAAGGGGGCCUGGAAGUUUGGACUGGGCAGAGCUCAACACAGCGUGGCAAAGUGGCUGUGGCUAGACUGCCUCUCUGGAUUCCUCGUCACUCAGCAGGGCAUCUCUGAGAGAAAUGCC

Read counts are not given, so values of variants with three or more changes are uncertain.

Variants of B1 are the subject of this data set. The data set is described as follows: self-cleavage, relative activity (ratio to wild type); higher = more cleavage; in vitro, sequencing; the parent is a self-cleaving ribozyme.
For U9C U29C A141G, the self-cleavage is 2.3.

With U12C A57G A77G U130G, the self-cleavage was 0.

With U9C U100C G125U, the self-cleavage was determined as 1.87.

As for U12C A69C U115C, the self-cleavage is 0.

Regarding U9G U15A A65G, the self-cleavage worked out at 0.28.

Consider G10A A24U G53A, for which the self-cleavage turned out to be 1.62.

As to U9C U13A A69G U104C, the self-cleavage was 0.

Turning to U9C U26C A78G A94G, the self-cleavage stood at 1.67.

Regarding U12C A57G U91C A141G, the self-cleavage was 0.6.

On to G11C A22G A117U, for which the self-cleavage is 0.72.

Turning to G11A A30G A43G U47A U85C U134C, the self-cleavage worked out at 0.

For U9C U91C A138G, the self-cleavage was 0.71.

As to U12A U112C U130A, the self-cleavage came out at 1.07.

G10A U85C U96A: the self-cleavage stood at 0.06.

With U12C A92G U112C A117U, the self-cleavage worked out at 0.

On to G11U G35A U39C C146U, for which the self-cleavage came to 0.77.

Take G10A A59U A67C U130C: the self-cleavage is 0.26.

In the case of U9C U73A A107G A142G, the self-cleavage was 2.72.

With U9C G80A U143A, the self-cleavage was found to be 1.41.

For the variant U12C A31G U47C C99A U104C, the self-cleavage stood at 1.02.

Take U9C U132C U143G: the self-cleavage was 0.42.

Consider G10A A50U U62C U91C U100C, for which the self-cleavage worked out at 0.

Consider U9C U46C U52A, for which the self-cleavage came out at 0.92.

Regarding U9C U73A A124G, the self-cleavage is 1.4.

Consider U12A A78U U85C C103A U112C A138G, for which the self-cleavage turned out to be 0.

Take U9C G40A A77C U134C: the self-cleavage was 0.49.

For the variant U9C G35A U47A U102C A142G, the self-cleavage stood at 1.1.

G11C G83U A136C: the self-cleavage is 0.86.

Consider U9C G11U U14C G34U U108C U119C, for which the self-cleavage is 2.12.

Regarding U9G U14C C68U U104A, the self-cleavage was determined as 0.

Turning to U9G U73A U109C U132C, the self-cleavage was determined as 1.36.

For the variant U12C A69U U108C, the self-cleavage is 0.14.

For U9C U46C A138G, the self-cleavage worked out at 1.45.

For U9C U29C G34A A94G, the self-cleavage came out at 0.34.

In the case of G10U U13A U108C U115C, the self-cleavage turned out to be 1.72.

Consider U9C G83A U119C, for which the self-cleavage amounted to 1.46.

Turning to G10U A136G C146U, the self-cleavage stood at 1.36.

In the case of G11A A64U A121U A129U A136G, the self-cleavage is 0.39.

Regarding U9C G36C A42G A117U A136U, the self-cleavage is 1.44.

Turning to G10A U62A U73C, the self-cleavage is 0.

Consider U12C A65G A107G, for which the self-cleavage amounted to 0.

U12A U13G U62C U96C: the self-cleavage stood at 0.

In the case of U12A U15A U20C, the self-cleavage came out at 1.06.

U12A U119C A136G: the self-cleavage amounted to 2.04.

For the variant G11A U62A A77G U143C, the self-cleavage amounted to 0.

Turning to U12A A22C A77U, the self-cleavage stood at 1.23.

In the case of U9C U91A A141G, the self-cleavage came out at 0.

In the case of G10A A67G U134A, the self-cleavage was 0.16.

With G10A A30U A79G, the self-cleavage was 1.6.

U12A U73C G74A G83C U85C A140G: the self-cleavage is 0.23.

In the case of U9C U100C A138U, the self-cleavage was found to be 1.13.

Consider U9C U13C G35A A64G G88A C146U, for which the self-cleavage is 0.08.

U9C U62C U119C: the self-cleavage came out at 0.

On to U12C A79G C111U A141U, for which the self-cleavage is 1.37.

As to U12C A43G A78G U104A U115C, the self-cleavage stood at 1.31.

Consider G11U A69G A78G, for which the self-cleavage turned out to be 0.47.

For U12A U46A U115C, the self-cleavage was 1.87.

As for U9C U23C A50G G106A, the self-cleavage stood at 1.41.

For the variant U12C A24U C63U U108C, the self-cleavage was found to be 0.56.

Regarding U12A A22G C120U, the self-cleavage was determined as 0.97.

Turning to U9C U73G A77U, the self-cleavage amounted to 2.07.

U9C U100C U143A: the self-cleavage was 1.84.

Take U12C A42G A142G: the self-cleavage is 1.8.

G11A U14C A42G: the self-cleavage stood at 1.25.

In the case of U12C A31G G34U U81A G83A U104A, the self-cleavage was 1.68.

For U12C A69U U109A, the self-cleavage is 0.08.

Consider U12A U62C U81A C113U, for which the self-cleavage was determined as 0.08.

Take U9C U47A A65G A117G U134G: the self-cleavage amounted to 0.24.

As to U9C U52G G105A, the self-cleavage came to 1.69.

For the variant G10A U15C A42U U81C A94G, the self-cleavage was 0.

On to U9C G33U U47C G72A, for which the self-cleavage was 1.45.

As to U12C A57U C133A, the self-cleavage worked out at 0.05.

With U12C A31U U39C U52A, the self-cleavage came to 2.3.

U9C U20C G127A U132C: the self-cleavage amounted to 0.75.

In the case of U12C A43G G74U U96C, the self-cleavage amounted to 0.02.

As to U9C U46C U112A, the self-cleavage was 1.04.

For the variant U12C A57U U73G, the self-cleavage was 0.17.

Take U9C U12G A94G U102C C116U A140G: the self-cleavage amounted to 0.48.

In the case of U9C U96A C118U, the self-cleavage turned out to be 0.06.

Consider U12C A24G U115C, for which the self-cleavage is 1.02.

As to U9C U15C G74A U119C A142C, the self-cleavage turned out to be 1.22.

Turning to U9C G48A A77U U91A A94U A117G U119C, the self-cleavage is 0.11.

As to G10U A42G U47C U73A, the self-cleavage was 0.98.

In the case of U9G U26C U47A U87A U104C, the self-cleavage worked out at 0.79.

U9G G72A U81C U100C A141G: the self-cleavage worked out at 1.51.

As for U9C U109C A136G, the self-cleavage is 2.52.

U12C A42G A50G: the self-cleavage was found to be 0.66.

With U9C G114A U115C, the self-cleavage worked out at 1.49.

For the variant U9C G48A U108C, the self-cleavage was found to be 0.38.

Regarding U12C A22C U47A A140G, the self-cleavage turned out to be 1.44.

Turning to G10A A69G U132A, the self-cleavage came to 0.44.

In the case of U9C U15C G33U A94G, the self-cleavage was found to be 1.08.

Turning to U9G A77G A78G A142G, the self-cleavage was determined as 0.

In the case of U12C A22U U119A, the self-cleavage was determined as 0.73.

With G11A U14C U112A A129G A136U C146G, the self-cleavage turned out to be 1.49.

Take G10A U39C U85C: the self-cleavage stood at 0.2.

Regarding U9C U14C G114A, the self-cleavage is 1.15.

Turning to U12A G36C A57G G70A A92G U115G A129U, the self-cleavage stood at 0.

On to G11A U14C A42G A59G U130C, for which the self-cleavage was found to be 0.54.

In the case of U12A U14C G49U U119C, the self-cleavage was found to be 0.64.

For U9C U87C A140G, the self-cleavage stood at 0.33.

Turning to G10A U12C U100A, the self-cleavage stood at 1.29.

For U9G A43G A142G, the self-cleavage is 0.57.

As to U9G U14C A78U A138G, the self-cleavage was 1.77.

Consider U12C A24U A138G U143C, for which the self-cleavage came out at 1.88.

Take U12A U100A A124U: the self-cleavage is 0.77.

With U12C A22G U73C U132C, the self-cleavage amounted to 1.84.

For U12A U23C A136G, the self-cleavage is 1.87.

In the case of U9C G35A C66A U112C, the self-cleavage worked out at 0.06.

In the case of U9G U15A U47G U119C, the self-cleavage was 0.72.

As to U12C A50G A57U, the self-cleavage was 0.39.

Regarding U12C A42G A67G U143A, the self-cleavage worked out at 0.

Consider U12C A31U G35A, for which the self-cleavage came out at 1.06.

With U12C A65G U85A U102C, the self-cleavage came out at 0.31.

With G11C G35A U112A G114A U130C, the self-cleavage is 1.79.

As to U12C A42G A140G, the self-cleavage was 1.53.

Take G10A A22U U23C: the self-cleavage stood at 1.01.

As for U9G U39C G70U A77G U108C U115C, the self-cleavage came out at 0.

U9C G53A A59U U96C: the self-cleavage turned out to be 0.18.

Consider U12A U52C U100C, for which the self-cleavage stood at 0.2.

For U9C U47C U104A, the self-cleavage was determined as 1.59.

Regarding G10A A64U A107U U115C, the self-cleavage is 0.47.

For the variant U12A U29C A77G, the self-cleavage is 2.18.

In the case of U12A U62A A65U G83A, the self-cleavage was determined as 0.05.

As to U12C A24C U134A, the self-cleavage came to 1.79.

Turning to U12C A59G A69G U73A, the self-cleavage turned out to be 0.

In the case of G11A U85C A94G A138G A141G, the self-cleavage is 0.

Turning to U12C A57G A77G U81A, the self-cleavage was 2.54.

As to G10A G82A A138G, the self-cleavage came out at 1.22.

On to U9C U85C A92G A121U U132C A138U, for which the self-cleavage came to 0.

U9C U45A A50G G93A: the self-cleavage worked out at 0.03.

With U9G U87C A141G, the self-cleavage came to 0.35.

As to U9C U109C U134C, the self-cleavage is 0.75.

Regarding U9C U47C U91C A94U A142G, the self-cleavage amounted to 0.

For the variant G11A A57G U134C, the self-cleavage was 1.01.

In the case of G11A A31U G36C C68U G82A G114A A129G, the self-cleavage worked out at 0.1.

Consider U12A U23C C56U U62C G93U, for which the self-cleavage came out at 0.04.

As to U12A A24U U46C A64G U81A A138U, the self-cleavage was determined as 0.92.

Consider U9C G32A G41A A59G U104C U115C A129U, for which the self-cleavage was 0.19.

Turning to U12A C71U U96A, the self-cleavage stood at 0.07.

U12A A65G U108C U115A: the self-cleavage came to 0.51.

Consider U9C U26C G114A, for which the self-cleavage stood at 1.04.

Take U9C U39G U115A A138G: the self-cleavage was determined as 0.77.

As to U9G A78U A138G, the self-cleavage was 2.78.

As to U9C U52C C71U A138U A140G, the self-cleavage turned out to be 0.47.

U9C U15C U45C: the self-cleavage was determined as 1.48.

As for U9C G83A A129U, the self-cleavage stood at 1.29.

Regarding U9C U46C A94G A124G, the self-cleavage amounted to 1.15.

On to G10A U39C U81A, for which the self-cleavage was 1.52.

Regarding U12C A79G A129G, the self-cleavage was determined as 1.23.

With U12A U62C U96C U112A A142G, the self-cleavage was found to be 0.

G10U U47C A78G U100A: the self-cleavage amounted to 0.23.

In the case of U9C G72A A124G, the self-cleavage was determined as 0.9.

For the variant U9C U20A U47C, the self-cleavage was 1.36.

Turning to G11A U14C A129G, the self-cleavage came out at 0.71.

As to G11C A69U U96A, the self-cleavage was 0.01.

With U12C A43U U47C A129G U132A, the self-cleavage was found to be 1.15.

In the case of U9C G36U A129U A138G, the self-cleavage worked out at 1.61.

In the case of U9C U14C U102C U132C, the self-cleavage was found to be 0.54.

For the variant U12A G40A U85C U87C, the self-cleavage was 0.05.

With U12C A43G G125A, the self-cleavage came to 1.37.

On to U12A U13C U39C A43G, for which the self-cleavage stood at 1.69.

On to U9C U26A A57U U96A, for which the self-cleavage stood at 0.6.

With U12A U14A U26A A65G U96A, the self-cleavage was 0.22.

On to U9C U13A U15C A24U C61G, for which the self-cleavage is 0.

As for U9C U62C A77G A142G, the self-cleavage was found to be 0.24.

U12A A22G U104A U112A A121U: the self-cleavage stood at 1.06.
